Test results reported in PMC7819943, “Rice protein-binding microarrays: a tool to detect cis-acting elements near promoter regions in rice”.
The list shows a part of the results.

biological target: T1, OsWOX13 (Oryza sativa, UniProt Q5QMM3 1-267); experiment: protein-binding microarray (RPBM); PBS, 2% BSA, 51.3 ng/ul salmon testes DNA, 50 uM zinc acetate, 200 nM TF, 25 C, 1 h; high values mean tight binding; settings: protein: recombinant; tags: N-terminal polyhistidine and DsRed monomer fusion (pET32a); label: CyDye5-dUTP incorporated in the synthesized complementary strand; 3' TTTTT single-stranded linker to array surface; dsDNA, one strand shown
T1 sequence: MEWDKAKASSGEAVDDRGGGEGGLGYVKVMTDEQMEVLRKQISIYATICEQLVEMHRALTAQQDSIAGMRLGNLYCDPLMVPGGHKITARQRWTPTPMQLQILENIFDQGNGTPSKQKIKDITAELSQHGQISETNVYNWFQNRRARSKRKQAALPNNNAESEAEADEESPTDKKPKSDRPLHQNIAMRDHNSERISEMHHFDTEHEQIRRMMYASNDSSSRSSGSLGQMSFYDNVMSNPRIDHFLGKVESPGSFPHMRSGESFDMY
How it was run: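 Polyhistidine-tagged DsRed fusions of transcription factors, joined at the N-terminus, were expressed in E. coli BL21-CodonPlus and isolated on Ni–NTA. They were incubated at 200 nM for 1 h at 25 °C on a custom Agilent array, double-stranded and BSA-blocked, in PBS with 2% BSA, salmon testes DNA and 50 µM zinc acetate. The binding signal is per-feature fluorescence intensity (arbitrary units) read on an Axon 4000B scanner after washing.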

| Sequence | binding signal |
| --- | --- |
| CTATCAAATATCTGATGTAATCAATTTGTCACTAGACTACCGGAGTCACCTAGTGCAG | 3230 fluorescence intensity (a.u.) |
| ATATAGTTGTGATTAATTAGTGAGTAGAGTGTGATACCTGCGGAGTCACCTAGTGCAG | 22100 fluorescence intensity (a.u.) |
| ACATTACCAAATTTTAACAATGCCAAAATTTTGGTAAGGTCGGAGTCACCTAGTGCAG | 3220 fluorescence intensity (a.u.) |
| ACCTGATGAATTGCAGGATTAGAGATGAACTCGTACTTTTCGGAGTCACCTAGTGCAG | 9480 fluorescence intensity (a.u.) |
| AGTCCATTAGCCTAGCAGATTGGAGTATTATTCGGGCCATCGGAGTCACCTAGTGCAG | 7010 fluorescence intensity (a.u.) |
| TTTACTCTTAGCAATCAATTTAGCATATTTATCTATTCTGCGGAGTCACCTAGTGCAG | 9900 fluorescence intensity (a.u.) |
| CCTGATTTTGACAGTACACAAACACAATTCAAAACGGGCCCGGAGTCACCTAGTGCAG | 25600 fluorescence intensity (a.u.) |
| TTCCAATTGACCAGGCCCTCAATCATACATCATGCACATCCGGAGTCACCTAGTGCAG | 17500 fluorescence intensity (a.u.) |
| AGATGACTGAATAGTGAATTGATCTGTGAAAATTGTTCGACGGAGTCACCTAGTGCAG | 20600 fluorescence intensity (a.u.) |
| TAAATTTTAAAATTTAAATTTTGACTTAGCATAAGTAAAACGGAGTCACCTAGTGCAG | 9210 fluorescence intensity (a.u.) |
| TCTTCCTGATTTTCTCGCAGAGCTCCCCTGATTCGACCACCGGAGTCACCTAGTGCAG | 3360 fluorescence intensity (a.u.) |
| ACATACGTATTAATTTCGTGATTTCCATATAATCAAAACACGGAGTCACCTAGTGCAG | 5740 fluorescence intensity (a.u.) |
| GGATTTAATAATTAAACACAAGTATCACACCAACAATAAACGGAGTCACCTAGTGCAG | 3930 fluorescence intensity (a.u.) |
| ACATTCCAAAATTTGACCAAATTTGTTCACTCGTTGACTGCGGAGTCACCTAGTGCAG | 3660 fluorescence intensity (a.u.) |
| AAAGCTTATTAATTTGCTCCTAGACCAATGTATGCCGTGCCGGAGTCACCTAGTGCAG | 3470 fluorescence intensity (a.u.) |
| CTTTTAACATGGCCCATAATTGCATCGGAAGCATGGGCTGCGGAGTCACCTAGTGCAG | 11500 fluorescence intensity (a.u.) |
| GTACTACTAATAATTAATTTCTACAAGTTCTTCGATCGAGCGGAGTCACCTAGTGCAG | 12700 fluorescence intensity (a.u.) |
| CCAAAATGATCATTATATATGTTTATGCATCAAGACCAAACGGAGTCACCTAGTGCAG | 4860 fluorescence intensity (a.u.) |
| CTCGCATACTAACTGGACATGATCAGACTCCTAATTGTAACGGAGTCACCTAGTGCAG | 6730 fluorescence intensity (a.u.) |
| GTTTGAATCTATCAATCAAACATGCACGTCAAACTTAATTCGGAGTCACCTAGTGCAG | 12100 fluorescence intensity (a.u.) |
| AATTAATTATCATCATTACCGCAAATTCTCAAAAGTCAGGCGGAGTCACCTAGTGCAG | 41200 fluorescence intensity (a.u.) |

| Sequence | binding signal |
| --- | --- |
| GCAATTGACGAGTGGCATTGCTTTCTCTATCATTTTATCACGGAGTCACCTAGTGCAG | 11300 fluorescence intensity (a.u.) |
| CTAAAATTGGCACATCCTTAGAAAAGCGAATGCTTCGGTTCGGAGTCACCTAGTGCAG | 8030 fluorescence intensity (a.u.) |
| TAATTAATAGATACAATTGCCTTCCCAGGACTCTATCCATCGGAGTCACCTAGTGCAG | 14500 fluorescence intensity (a.u.) |
| TTAAATAGGCTTAATAAATTCATCTCATGGTTTACCGGCGCGGAGTCACCTAGTGCAG | 6110 fluorescence intensity (a.u.) |
| GGTTAATTAAAATTTGGGCGCTGTGGTGGTGTGCATACGGCGGAGTCACCTAGTGCAG | 42000 fluorescence intensity (a.u.) |
| ATGACTAGATAGGTTATCAGAAATATTGTACTTGTATGATCGGAGTCACCTAGTGCAG | 3940 fluorescence intensity (a.u.) |
| ATAGTGTAATTATACTACAATTTTATTATATTTACATTTGCGGAGTCACCTAGTGCAG | 5360 fluorescence intensity (a.u.) |
| AGGTATAATTGTAATTATGCAGTAATTGTGGAAAGGCCAACGGAGTCACCTAGTGCAG | 36100 fluorescence intensity (a.u.) |
| AGTAATTTCATCCTTCCCTTTTGTAATCATACAACAGAAGCGGAGTCACCTAGTGCAG | 6200 fluorescence intensity (a.u.) |
| CCCTAGTGATTATGCGCACAACCAGGTGGTGCGGACTGCGCGGAGTCACCTAGTGCAG | 3950 fluorescence intensity (a.u.) |
| GACTCTGACTGTCAAAATGTCCAAAATGGCAGGCAGCCTTCGGAGTCACCTAGTGCAG | 3990 fluorescence intensity (a.u.) |
| AATCTATGTATAATTTGAATTATAAACCACATCATCTTAACGGAGTCACCTAGTGCAG | 3590 fluorescence intensity (a.u.) |
| TTAGCAAATTTAACCTATCAACTTGTGCAAGAGTCAAACTCGGAGTCACCTAGTGCAG | 7680 fluorescence intensity (a.u.) |
| TTTAAACTGACACATGGGTCCCACCTTTTATTTTGCTTCCCGGAGTCACCTAGTGCAG | 7490 fluorescence intensity (a.u.) |
| TATCAATTACATCTTTGTTTCCTTTTCAGTTCAATTGCATCGGAGTCACCTAGTGCAG | 11300 fluorescence intensity (a.u.) |
| CACAGACACATTTGGTTAATTACATACCTTGTACACTTCACGGAGTCACCTAGTGCAG | 6260 fluorescence intensity (a.u.) |
| ATTCAATCTTTGTCCTCCTCCCGTTCTCTCTCTCTCTCTTCGGAGTCACCTAGTGCAG | 4790 fluorescence intensity (a.u.) |
| TAATATAATTGAAATATAATTAATACATTGTAACTATATTCGGAGTCACCTAGTGCAG | 20800 fluorescence intensity (a.u.) |
| AATAAATTTCATGCTTATCATAGGGATAATGTGCCTTCGTCGGAGTCACCTAGTGCAG | 7300 fluorescence intensity (a.u.) |
| ATAGATAAGAATTAATTTCAGCATGATGTAGATTTTGTTACGGAGTCACCTAGTGCAG | 3660 fluorescence intensity (a.u.) |
| CTTAATTAATCCGTCATTAGTAAATATTTACGGTAGCACCCGGAGTCACCTAGTGCAG | 48400 fluorescence intensity (a.u.) |
